Experimental data from PubChem BioAssay AID504832 (National Center for Advancing Translational Sciences (NCATS), 2011).
In all, about 310,000 compounds went through this assay and about 18,000 (5.8%) were called active. The inconclusive results got no clear call from the source; some entries with a clear call stand among them for comparison. Calls come from the whole dose curve; as a rule, active = well fitted inhibition curve with a large enough effect; inconclusive = small, poorly fitted or top-dose-only effect, or another doubt; inactive = no such curve, though single readings can be large or run the other way. No potency is given beside an inconclusive call; the fits are too rough.

assay: Primary qHTS for delayed death inhibitors of the malarial parasite plastid, 48 hour incubation; conditions: P. falciparum luciferase growth in erythrocytes; series mostly up to 28.7 µM
Summary of the method: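 Firefly luciferase activity from engineered P. falciparum reports growth; inhibitors lower the luminescent signal. Cultures contained 2% hematocrit erythrocytes at 0.1% final parasitemia.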
Potency is the fitted concentration of half-maximal effect; tags give direction and shape of the fitted curve.

Row | Compound | Potency
1 | Cc1ccc(S(=O)(=O)N2CCOCC2)cc1NC(=O)CSc1nc2ccccc2c(=O)n1Cc1ccccc1 | inconclusive [inhibitor, single point]
2 | Cc1ccc2c(ccc[n+]2CC(=O)c2ccccc2)c1 | active: 14.7 µM
3 | COc1ccc2sc(-c3ccccc3OC)c(C#CCCO)c2c1 | inconclusive [inhibitor, single point]
4 | O=C(Nc1ccc2c(c1)CCC2)c1cccc(S(=O)(=O)N2CCN(c3ccc(F)cc3)CC2)c1 | inconclusive [inhibitor, single point]
5 | CCN1CCN(Cc2ccc(C(=O)Nc3ccc(C)c(NCc4cnc(NC(=O)OC)cn4)c3)cc2C(F)(F)F)CC1 | inconclusive [inhibitor, full curve, poor fit]
6 | Nc1nc(-c2c[nH]c3ccccc23)cs1 | inconclusive [inhibitor, single point]
7 | COc1cc(C2C(C#N)=C(N)N(Nc3ccccc3)C3=C2C(=O)CC(C)(C)C3)ccc1OCc1ccccc1 (centres undefined) | active: 4.15 µM
8 | CN(Cc1ccccc1)C(=S)NC(=O)c1ccc(-c2ccccc2)cc1 | inconclusive [inhibitor, single point]
9 | CCn1c2ccccc2c2cc(NC(=O)c3cccc([N+](=O)[O-])c3)ccc21 | inconclusive [inhibitor, full curve, poor fit]
10 | O=C(C1CCN(S(=O)(=O)c2cccc3cccnc23)CC1)N1CCN(c2ccccc2)CC1 | inconclusive [inhibitor, partial curve]
11 | CCOc1ccccc1N1CCN(c2ncnc3scc(-c4ccc(OC)cc4)c23)CC1 | active: 5.86 µM
12 | O=C(Nc1ccc(-c2noc(COc3ccccc3Cl)n2)cc1)c1ccco1 | inconclusive [inhibitor, full curve]
13 | COc1ccccc1Oc1c(C)oc2c(CN(C)C)c(O)ccc2c1=O | inactive
14 | COc1cc(OC)cc(OC(=O)C2CCN(C(=O)c3ccc(F)cc3)CC2)c1 | inactive
15 | Nc1ccccc1SSc1ccccc1N | inconclusive [inhibitor, partial curve, poor fit]
16 | Cc1cc(C)n(-c2cc(N3CCN(C(=O)c4cccc(F)c4)CC3)ccc2[N+](=O)[O-])n1 | inconclusive [inhibitor, partial curve, poor fit]
17 | O=C(c1ccc(N2CCOCC2)cc1)c1cccs1 | inactive
18 | CC(C)CNS(=O)(=O)c1ccc(CCC(=O)N2CCN(Cc3ccc4c(c3)OCO4)CC2)cc1 | inconclusive [inhibitor, partial curve, poor fit]
19 | Cc1nn(-c2ccccc2)c(C)c1/C=N\N1CCN(c2ccc(Cl)cc2)CC1 | active: 13.1 µM
20 | O=C(CSCc1ccc(Br)cc1)Nc1ccc(S(=O)(=O)N2CCOCC2)cc1 | inconclusive [inhibitor, full curve, poor fit]
21 | CCc1noc(C)c1C(=O)Nc1nc(-c2cc(OC)ccc2OC)cs1 | inconclusive [inhibitor, partial curve, poor fit]
22 | Cc1ccc(C)c(NC(=S)c2nc3ccccc3s2)c1 | inactive

Row | Compound | Potency
23 | C/C=C\C(=O)N(CC)c1ccccc1C | inactive
24 | COc1cc(S(=O)(=O)NCCOC23CC4CC(CC(C4)C2)C3)c(OC)cc1Cl | inconclusive [inhibitor, partial curve]
25 | N#Cc1c(/N=C/c2ccc(Br)s2)sc2c1CCC2 | inactive
26 | CCc1c(C)nc(SCC(=O)CC(=O)OC(C)C)c(C#N)c1C | inconclusive [inhibitor, single point]
27 | Cc1ccc(CNC(=O)CC2(CC3=NS(=O)(=O)c4ccccc4N3)CCCC2)cc1 | inconclusive [inhibitor, single point]
28 | COc1ccc(CC(=O)N(CCN(C)C)CC2CCCN(Cc3ccccc3F)C2)cc1 (centres undefined) | inconclusive [inhibitor, full curve, poor fit]
29 | O=C(CCNC(=O)c1ccccc1Cl)Nc1nc2ccc(F)cc2s1 | inactive
30 | CCOc1nc(Nc2cc(Cl)ccc2OC)nc(OCC)n1 | inconclusive [inhibitor, partial curve]
31 | CCOC(=O)c1coc(CNC(=O)c2c(C)oc3c2CCCC3)c1 | inactive
32 | Cc1c(CN2CCc3c([nH]c4ccccc34)C2C2CCCCC2)cnn1C (centres undefined) | inconclusive [inhibitor, full curve]
33 | CN(C)S(=O)(=O)c1ccc(N2CCCC2)c(C(=O)Nc2ccc(C(N)=O)cc2)c1 | inconclusive [inhibitor, single point]
34 | C[C@@H]1C(=O)OC[C@H]1NC(=O)OCc1ccccc1 | inconclusive [inhibitor, partial curve, poor fit]
35 | COc1ccc(NC(=O)c2ccc3c(c2)CCN3S(=O)(=O)c2ccccc2)c(OC)c1 | inconclusive [inhibitor, partial curve]
36 | Cc1cc(NC(=O)CSc2cc(Cl)ccc2Cl)n(-c2ccccc2)n1 | inconclusive [inhibitor, single point]
37 | O=C(Nc1ccccc1)O/N=C/c1ccncc1 | inactive
38 | O=C(CSc1nc2ccsc2c(=O)n1NC(=O)c1ccccc1)Nc1nccs1 | inactive
39 | O=C1/C(=C\c2cccc(O)c2)SC(=S)N1Cc1ccccc1 | inconclusive [inhibitor, single point]
40 | CCOC(=O)Cc1csc(NC(=O)c2cccc(OC)c2)n1 | inactive
41 | COc1ccc(N(C)S(=O)(=O)c2cccc(C(=O)Nc3nc(C)c(C(C)=O)s3)c2)cc1 | inconclusive [inhibitor, single point]
42 | COc1ccc(/C=C2\Sc3ccc(C(=O)NCc4cccnc4)cc3N(C)C2=O)cc1OC | inconclusive [inhibitor, single point]
43 | Cc1ccc(NC(=O)CSc2nnnn2-c2ccc3c(c2)OCO3)cc1C | inactive
44 | COc1ccc(CN(C)CC(=O)Nc2c(C)cccc2C)c(OC)c1 | inconclusive [inhibitor, single point]
